# Data from the supplement of paper PMC3334620.
# Over roughly 33,000 sequences, “E-score (-0.5 to 0.5)” has its median near -0.043; the highest 2% begin near 0.37. Some of the results follow.
# Biological target: T1, Upc2 (UniProt Q12151)
# T1 sequence: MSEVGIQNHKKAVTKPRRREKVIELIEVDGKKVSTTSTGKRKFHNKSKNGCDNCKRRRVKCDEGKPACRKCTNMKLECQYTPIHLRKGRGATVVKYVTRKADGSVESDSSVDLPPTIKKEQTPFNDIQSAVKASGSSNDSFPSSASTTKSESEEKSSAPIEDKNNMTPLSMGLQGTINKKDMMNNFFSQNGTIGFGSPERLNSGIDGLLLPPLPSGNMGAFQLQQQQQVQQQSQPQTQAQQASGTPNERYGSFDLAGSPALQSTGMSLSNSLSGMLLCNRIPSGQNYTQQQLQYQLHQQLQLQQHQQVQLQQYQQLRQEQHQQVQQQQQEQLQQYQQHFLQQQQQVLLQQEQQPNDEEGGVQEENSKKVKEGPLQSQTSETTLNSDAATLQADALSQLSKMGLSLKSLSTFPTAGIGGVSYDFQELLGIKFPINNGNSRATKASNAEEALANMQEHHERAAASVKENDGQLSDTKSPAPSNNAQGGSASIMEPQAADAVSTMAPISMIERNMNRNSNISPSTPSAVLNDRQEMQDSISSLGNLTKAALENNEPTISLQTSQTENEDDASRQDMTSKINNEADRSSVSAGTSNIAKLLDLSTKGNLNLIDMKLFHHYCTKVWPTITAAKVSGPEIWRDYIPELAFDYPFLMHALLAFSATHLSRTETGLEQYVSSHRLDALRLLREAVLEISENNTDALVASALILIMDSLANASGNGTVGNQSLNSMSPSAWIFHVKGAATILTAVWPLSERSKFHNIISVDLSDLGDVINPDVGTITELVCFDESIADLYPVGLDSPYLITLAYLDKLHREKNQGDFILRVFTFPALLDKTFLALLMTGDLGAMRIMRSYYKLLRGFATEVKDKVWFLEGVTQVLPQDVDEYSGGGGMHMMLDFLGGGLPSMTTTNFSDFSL
# Assay: PBM E-score (8-mer binding enrichment) (E-score (-0.5 to 0.5)); higher = stronger / more preferred TF binding; most listed sequences are background and not binding sites
# Settings: protein concentration: 200 nM; construct: GST-full length
# Method in brief: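 Yeast transcription factors carrying a GST tag, as full-length proteins or DNA-binding domains, were produced by PURExpress in vitro transcription/translation. About 100-200 nM protein was applied to universal all-10-mer Agilent arrays, double-stranded by primer extension on fresh or once-stripped slides. Bound protein was detected with fluorescent anti-GST, and scans were normalised with masliner. The Universal PBM Analysis Suite gave each ungapped eight-base word, pooled with its reverse complement, an E-score, a modified Wilcoxon-Mann-Whitney statistic.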
row,Sequence,PBM E-score
1,GCCATAAA,0.0123
2,AATCCAAT,-0.119
3,GGTAAACC,-0.133
4,AGCGGCAA,-0.15
5,GAGCCCCA,-0.114
6,AATTGAAC,0.0865
7,CCATACAG,0.00071
8,ACCCCTGG,-0.234
9,ACTATAGA,-0.237
10,GTCACGCA,-0.0435
11,ACCACCGG,-0.171
12,CAGCAAGC,-0.18
13,ACTCACTC,-0.07
14,CACCACTC,-0.114
15,CATTTGCA,0.193
16,AAGTTGAA,-0.031
17,CCATACTC,-0.0832
18,AGAACCTA,-0.057
19,ATGTCTCG,0.24
20,AGTTCAAG,0.129
21,ACCATCTA,-0.129
22,GCCTATGA,-0.231
23,AGCGCGCA,0.0723
24,AATCCCTC,-0.0204
25,CGAGCTTC,0.241

row,Sequence,PBM E-score
1,TAGCTTAA,0.0918
2,ACTATGCA,-0.0697
3,TAATATAA,0.132
4,GAAGCGCC,-0.08
5,GCTGACTA,-0.208
6,GACGCAAA,0.139
7,AAGGATGC,-0.0224
8,CCTGCTAG,-0.354
9,ACATCTCG,0.14
10,AGGCATTC,-0.298
11,AATGAGTG,-0.1
12,ATGCGGTC,-0.0656
13,CTGATCGC,-0.0401
14,AAGAATCC,-0.0798
15,CCATGCGA,0.101
16,CCCGCCCC,0.0468
17,ATCACTAA,0.0237
18,AAACACCT,-0.0522
19,TATCGTGA,0.0236
20,AGGTGTAC,0.117
21,AGTTCCAT,-0.0936
22,GAGTACCA,-0.183
23,GCGCTGAA,0.0222
24,AAGAAAAA,-0.145
25,ATGACCTG,-0.0326

row,Sequence,PBM E-score
1,ACGCACCG,0.174
2,CGTTGCGA,0.177
3,CTACTGAG,-0.133
4,TCCAAAGA,-0.108
5,CCTCAATA,-0.253
6,ATTACTGA,-0.0354
7,AAGATGTG,0.0164
8,ACGCCCAC,-0.0667
9,GGACTACC,-0.214
10,GGTTGTGA,0.0133
11,TTAGACAA,0.0412
12,GGCGTCTA,-0.152
13,CGCTCCGC,0.0891
14,CCAGCACA,-0.33
15,TAGGCTAA,-0.052
16,GTAGTGAA,-0.143
17,GAACAAAA,0.0641
18,TCTTTGAA,0.0294
19,CACTATCA,-0.118
20,ATTTCTAG,-0.083
21,ACCCAGGA,-0.0144
22,CCCACATA,0.0708
23,CAGTTCAA,-0.141
24,AACCAAAA,-0.119
25,ATCCTTTA,-0.0362

row,Sequence,PBM E-score
1,ATTTATGA,-0.114
2,ACGGTTAA,0.176
3,ATGATCGG,-0.0909
4,GTGTATGA,-0.0258
5,AGAGGTAT,0.119
6,CACGCGAA,0.0534
7,CACAAGTG,-0.151
8,AATCTGCA,-0.254
9,ACAGGCGC,0.112
10,AGCAGAAG,-0.255
11,GAAGGATA,-0.254
12,AAATTATC,0.168
13,CGTTTGAC,0.363
14,GACGTAAC,0.0258
15,GTGTAGGA,-0.179
16,AGATTGAC,-0.0535
17,CGAGTCAC,0.0984
18,CCGCGAGA,-0.027
19,GAGCGCAA,-0.0567
20,TCGTATCA,0.463
21,GCGGGTTA,0.134
22,AATCCTAC,-0.00843
23,CATCAAGC,-0.0919
24,AGTCCAGC,-0.11
25,ATTCGGCA,0.0687

row,Sequence,PBM E-score
1,CCATAACA,-0.0637
2,AGTCTTAA,-0.185
3,ATTTCTAA,-0.105
4,AGCGCGAC,-0.115
5,CCCAGAAC,0.0405
6,ATTGGGTC,-0.155
7,CTAGCTAA,0.0343
8,ACCGCTCG,0.123
9,GTTGAGTA,0.0018
10,CGGAGTTC,0.0843
11,AATTGTGA,0.0573
12,AGTCCCAA,-0.127
13,CGATTCCA,-0.0418
14,AACATTCC,-0.255
15,AACCTTTG,-0.165
16,GGCCGCCC,-0.272
17,GGTTAACC,-0.0722
18,AAGCGTCA,0.0424
19,ATGAAACC,-0.157
20,CGAGGTTC,0.178
21,AGGTTACC,0.0246
22,TAAGTCTA,-0.196
23,GCACTGAA,-0.229
24,ATCAGCTC,-0.112
25,ATGTAGTA,-0.00889

row,Sequence,PBM E-score
1,CGGCCCCC,-0.2
2,CTTTAGGA,-0.167
3,TGTTGAAA,0.0958
4,CTAACCCA,-0.27
5,TGTGAGAA,-0.0856
6,TCCACCCA,-0.276
7,GAGAGTCA,-0.178
8,ACGGGATC,0.253
9,CAGCACGA,0.0496
10,GAACGGCA,0.27
11,GCCGCTAC,0.00233
12,AGTATGTG,-0.00679
13,CACGTAAC,0.039
14,GGGATTTA,-0.0717
15,ATGAGCTA,-0.136
16,AAGCTGTG,-0.0512
17,ACCATCAT,-0.0049
18,GTTAAATA,0.189
19,ACGGTACC,0.0672
20,ATGTACAA,-0.037
21,CGCTCCTC,0.0179
22,TAACCAGA,0.0704
23,ACTGCCAT,0.0855
24,ACAATATA,0.191
25,CTATGCAA,-0.145

row,Sequence,PBM E-score
1,CTCCAGTA,-0.0104
2,GTCGCAAA,0.224
3,ATCCTCTC,-0.0944
4,GGGAGGCA,-0.149
5,ACAAAGAT,0.088
6,AGGCTGTA,-0.0231
7,CGTACCCC,0.391
8,CGTTCCGA,0.361
9,ACCCTACG,-0.0494
10,AGTCATAC,0.182
11,ACCGGGAT,-0.12
12,GCACATCC,-0.149
13,CCACAACA,-0.0935
14,ACATGGAA,-0.0591
15,ACACCGGT,-0.0421
16,GAGTCACA,0.0539
17,CGACCAGC,-0.0299
18,ACATTATC,0.077
19,AATTCCTA,0.00142
20,CTAGGCAG,-0.206
21,TTCCCGAA,0.14
22,TCCTACGA,0.256
